Source: the supplement of paper PMC3334620
Over roughly 33,000 sequences, “E-score (-0.5 to 0.5)” has its median near -0.032; the highest 2% begin near 0.36. This is one part of the list.

The sequences below were run against T1, Sko1 (UniProt Q02100) (assay: PBM E-score (8-mer binding enrichment) (E-score (-0.5 to 0.5)); higher = stronger / more preferred TF binding; most listed sequences are background and not binding sites). Settings: protein concentration: 200 nM; construct: GST-full length.
T1 sequence: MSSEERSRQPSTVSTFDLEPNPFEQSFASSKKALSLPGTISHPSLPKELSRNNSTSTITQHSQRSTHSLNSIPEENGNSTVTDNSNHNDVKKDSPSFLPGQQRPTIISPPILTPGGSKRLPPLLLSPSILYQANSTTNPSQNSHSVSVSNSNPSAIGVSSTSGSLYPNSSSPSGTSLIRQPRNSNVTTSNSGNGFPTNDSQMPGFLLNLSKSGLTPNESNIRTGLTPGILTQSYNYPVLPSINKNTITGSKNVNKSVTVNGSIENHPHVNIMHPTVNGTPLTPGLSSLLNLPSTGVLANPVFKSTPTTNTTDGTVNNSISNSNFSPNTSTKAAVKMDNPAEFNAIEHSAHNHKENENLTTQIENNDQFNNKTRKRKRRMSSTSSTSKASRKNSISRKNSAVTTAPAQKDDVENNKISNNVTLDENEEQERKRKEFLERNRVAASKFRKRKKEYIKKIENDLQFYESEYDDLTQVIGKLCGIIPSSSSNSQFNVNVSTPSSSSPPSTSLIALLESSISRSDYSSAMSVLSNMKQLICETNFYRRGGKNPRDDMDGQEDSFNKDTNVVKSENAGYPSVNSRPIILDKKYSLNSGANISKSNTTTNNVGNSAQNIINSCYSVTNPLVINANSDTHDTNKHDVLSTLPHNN
Method in brief: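 Masliner-normalised scans of fluorescent anti-GST signal were the basis for scoring. That signal came from GST-tagged yeast transcription factors applied at about 100-200 nM to double-stranded universal all-10-mer Agilent arrays on fresh or once-stripped slides. Each ungapped eight-base word, pooled with its reverse complement, received an E-score from the Universal PBM Analysis Suite.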

| Sequence | PBM E-score |
| --- | --- |
| CAATAACC | 0.0385 |
| ATGCCGGA | -0.172 |
| GGCCGGTA | -0.0704 |
| TAAGGGTA | -0.14 |
| ACCCTTCA | -0.148 |
| CCTTATAG | 0.0597 |
| ACTAAGCC | -0.157 |
| CCATATCG | -0.0184 |
| TAGATTGA | 0.0379 |
| ATGCAATC | 0.121 |
| ATTCCAAT | 0.216 |
| AAGGCGCG | -0.11 |
| CTTCTTTA | 0.0871 |
| CACACGAA | 0.229 |
| AAACCCGC | -0.11 |
| ATGGACTA | -0.0254 |
| CGTATGAA | 0.361 |
| ACCAGAAG | 0.00034 |
| ACAGACTA | -0.0343 |
| TGGTTACA | 0.123 |
| ATACCTTC | -0.139 |
| CAGGCCGC | -0.0941 |

| Sequence | PBM E-score |
| --- | --- |
| GTAAATTA | 0.233 |
| ACCTTCAG | 0.00033 |
| CCGGCTCA | -0.162 |
| ATGCCGAG | -0.138 |
| ACTGAGAC | -0.0815 |
| ATGGCTTC | -0.178 |
| ATTACGCC | 0.338 |
| ACGCCGAC | -0.0142 |
| AAATATCC | 0.0326 |
| CGGGTGGA | -0.198 |
| TCGGTTAA | -0.0102 |
| CTGCGAGC | -0.141 |
| AACCGAAT | 0.153 |
| ATCTGTCA | 0.0708 |
| CTCGATTC | -0.0562 |
| GCAAGTAA | -0.101 |
| GTGTGGCA | -0.0855 |
| ATCTTCAG | 0.0509 |
| ATTTCCGG | -0.00931 |
| AAATTGGT | 0.00944 |
| CTGCCGGA | -0.146 |
| GCAGGCTA | -0.251 |

| Sequence | PBM E-score |
| --- | --- |
| ACGTGGGC | 0.347 |
| CACCTTGG | -0.025 |
| AGTCAAAA | 0.139 |
| CTTCAGGA | -0.00644 |
| CCAGCATA | -0.123 |
| ACACTTCA | -0.0431 |
| CCTGATAG | -0.213 |
| ATCGGTCC | -0.289 |
| AGAGCTCG | -0.209 |
| AGGCTTGC | -0.107 |
| GTCTCGGA | -0.0981 |
| TATGCACA | 0.0251 |
| GATATTCC | 0.0474 |
| GGCGCGTA | 0.0232 |
| CCCCCCTA | -0.315 |
| CGCATATA | 0.125 |
| TCCTAGGA | -0.406 |
| TGGGATAA | -0.146 |
| ACTTTACC | 0.155 |
| ATGATTCC | 0.169 |
| GAGTCGAA | -0.166 |
| AGATCAGG | -0.144 |

| Sequence | PBM E-score |
| --- | --- |
| GTTCTATA | -0.0699 |
| CTTGACCC | -0.12 |
| CTTCATGC | -0.163 |
| AGCGTCAC | 0.252 |
| AATGACAT | 0.4 |
| ACCTCAAG | -0.194 |
| CATTGAAC | 0.133 |
| TAAAGTAA | 0.205 |
| AAGAGCAA | -0.189 |
| ACATCGGT | -0.183 |
| CGCTAAAA | -0.102 |
| GTGCGCAC | 0.196 |
| CCCATAGA | -0.28 |
| ACCGCCAG | -0.0518 |
| AAGTGACG | 0.445 |
| GAAAGTAA | 0.0843 |
| TCGTGACA | 0.129 |
| CCCCCGGG | -0.265 |
| AGCACGGG | -0.248 |
| CATACCTA | -0.0293 |
| CAATAGAG | -0.0365 |
| ACGTGCCG | 0.243 |

| Sequence | PBM E-score |
| --- | --- |
| AGAAGGTC | -0.0991 |
| GGAGCAGA | -0.103 |
| ACCGAAGG | -0.107 |
| CGCGTAGA | 0.0669 |
| AGAAGTAT | 0.163 |
| GAGGTGGA | -0.268 |
| GCCGAGGA | -0.13 |
| TACTAAGA | 0.00683 |
| CGACAGAG | -0.124 |
| AAGACTGG | -0.0695 |
| CGAGTCCG | -0.112 |
| TGGAGCCA | -0.265 |
| CCTCGTCG | -0.233 |
| CAGGGGTC | -0.209 |
| AGATAGGC | -0.0324 |
| AACTCGGC | 0.121 |
| GGGTCCAC | -0.416 |
| ACTGCAGA | 0.0153 |
| CTGCGGAC | -0.184 |
| CTAGTTAA | 0.143 |
| ACCACAGC | -0.195 |
